Test results taken from PMC4336329 (PLoS ONE, 2015).
Out of some 310,000 compounds screened, about 2,200 (0.71%) showed an effect of 50% or more. Effects have a minus sign here. The list shows a part of the results.

target: human ether-à-go-go-related gene (hERG) potassium channel (human, UniProt Q12809); assay: primary screen, population patch clamp on CHO cells stably expressing hERG
Sequence (Q12809 whole entry, looked up): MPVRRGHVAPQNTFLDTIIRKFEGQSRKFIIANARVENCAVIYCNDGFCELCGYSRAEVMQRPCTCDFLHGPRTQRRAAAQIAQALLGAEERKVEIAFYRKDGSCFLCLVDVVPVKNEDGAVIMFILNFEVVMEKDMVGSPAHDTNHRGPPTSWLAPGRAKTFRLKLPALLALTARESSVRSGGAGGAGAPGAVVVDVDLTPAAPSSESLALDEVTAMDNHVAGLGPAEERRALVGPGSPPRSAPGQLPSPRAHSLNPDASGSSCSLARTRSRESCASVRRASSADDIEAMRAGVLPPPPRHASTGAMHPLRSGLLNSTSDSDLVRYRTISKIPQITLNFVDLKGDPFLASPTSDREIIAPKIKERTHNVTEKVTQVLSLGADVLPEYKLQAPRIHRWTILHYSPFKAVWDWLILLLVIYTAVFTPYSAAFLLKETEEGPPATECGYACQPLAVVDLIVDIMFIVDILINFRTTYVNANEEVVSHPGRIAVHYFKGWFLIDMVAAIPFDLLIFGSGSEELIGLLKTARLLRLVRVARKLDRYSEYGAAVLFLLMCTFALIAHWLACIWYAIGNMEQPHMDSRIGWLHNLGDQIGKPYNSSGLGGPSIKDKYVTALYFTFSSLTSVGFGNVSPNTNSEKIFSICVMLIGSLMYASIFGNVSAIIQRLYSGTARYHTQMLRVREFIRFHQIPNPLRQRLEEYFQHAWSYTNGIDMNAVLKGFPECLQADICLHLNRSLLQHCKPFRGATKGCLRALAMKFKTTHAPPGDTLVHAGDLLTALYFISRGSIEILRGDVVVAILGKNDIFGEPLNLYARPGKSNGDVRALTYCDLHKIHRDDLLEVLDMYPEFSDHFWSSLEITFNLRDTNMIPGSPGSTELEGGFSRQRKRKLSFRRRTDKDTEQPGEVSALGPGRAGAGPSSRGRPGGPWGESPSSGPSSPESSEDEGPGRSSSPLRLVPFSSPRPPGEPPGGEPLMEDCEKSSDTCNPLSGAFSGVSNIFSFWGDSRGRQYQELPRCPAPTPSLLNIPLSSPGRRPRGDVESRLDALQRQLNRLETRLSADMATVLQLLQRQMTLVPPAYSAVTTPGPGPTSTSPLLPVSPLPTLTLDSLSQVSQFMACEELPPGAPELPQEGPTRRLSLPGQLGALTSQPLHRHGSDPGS

SMILES	hERG current change (%, negative = inhibition) at 1uM [%]
CC(C)Cc1cc(C(=O)NCCN2CCOCC2)no1	-0.983
O=C(NC12CC3CC(CC(C3)C1)C2)c1ccc(-c2ccc(Br)cc2)o1	14.8
COc1ccc(-c2c(C#Cc3ccsc3)c3cc(-c4ccc(OC)nc4)ccc3n2C)cc1	10.8
CCN(CC)CCN(C(=O)CCS(=O)(=O)c1ccccc1)c1nc2cc3c(cc2s1)OCO3.Cl	-9.14
Cc1ccccc1OCC(=O)N1CCC2(CC1)CC(=O)c1ccccc1O2	-10.3
Cc1ccc(CNC(=O)N2CCN(S(=O)(=O)c3ccccc3)CC2)cc1	14
Cc1cc(=O)[nH]c(SCCc2ccccc2)n1	-0.381
Nc1nnc(SCCOc2ccc(Br)cc2)s1	11.7
CCNC(=S)NNC(=O)c1cc(-c2cccnc2)nc2ccccc12	13.9
O=C(c1ccc(CNc2c(N3CCCC3)c(=O)c2=O)cc1)N1CC=C(c2ccccc2)CC1	-2.51
Cc1ccc(Cn2c(SCCN3CCCCC3)nc3c2c(=O)n(C)c(=O)n3C)cc1	-67.1
CC(NC(=O)CN1C(=O)NC2(CCCCC2C)C1=O)c1ccccc1 (stereo not shown)	5.38
COc1ccc(CN2C(=O)CC(Cc3ccc(C)cc3)C2=O)cc1OC (stereo not shown)	10.1
O=C(CN1C(=O)CSCC1=O)NCc1ccc(F)cc1	7.66
CCOc1ccc(/C=N/NC(=O)Cc2csc(Nc3cccc(C(F)(F)F)c3)n2)cc1	10.9
O=C(C/C=N\O)Nc1ccc(Oc2ccccc2)cc1	14.1
Cc1ccc(S(=O)(=O)NC(C)C(=O)Nc2ccc(C(N)=O)cc2)cc1 (stereo not shown)	16.7
Nn1cc(-c2ccccc2)nc1SCC(=O)NCCN1C(=O)CSC1=O	10.3
O=C(CCCn1cnc([N+](=O)[O-])n1)Nc1cc(Cl)ccc1O	6.78
O=C(Nc1ccccc1)Nc1ccc(Oc2ncnc3cc(Cl)ccc23)nc1	12.6
O=C(CN1C(=O)CCC1=O)Nc1nc(-c2nc3ccccc3s2)cs1	-4.37
Cc1cccc(C)c1OCC(O)CN(Cc1ccccc1O)C1CCCCC1 (stereo not shown)	7.06

SMILES	hERG current change (%, negative = inhibition) at 1uM [%]
CCCCSc1nnc(-c2ccc(C)cc2)c2ccccc12	1.54
O=c1oc2cc(OCc3c(F)c(F)c(F)c(F)c3F)ccc2cc1-c1ccccn1	13
CCOc1ccccc1-c1nnc(SCC(=O)NC2CC3CCC2C3)n1CC (stereo not shown)	3.71
Cc1cc[n+](CC(=O)Nc2nc3ccccc3s2)cc1.[Cl-]	13.1
COc1ccc(S(=O)(=O)N2CCCC(C(=O)O)C2)cc1Cl (stereo not shown)	5.66
COc1cccc(OC)c1C(=O)Nc1c(C(=O)N2CCN(C)CC2)oc2ccccc12	-1.69
O=C(CN1CCN(Cc2ccc3c(c2)OCO3)CC1)NCC(F)(F)F	11.2
Cc1ccc(CNC(=O)c2ccc(Cl)cc2[N+](=O)[O-])cc1	16.6
O=C(NNc1cc(N2CCOCC2)nc(N2CCOCC2)n1)c1ccc(Cl)c(Cl)c1	-17.1
COc1ccc2c(c1OC)C(=O)N1c3ccccc3C(=O)N(c3ccc(F)cc3)C21 (stereo not shown)	4.26
Cc1ccc(S(=O)(=O)NCc2ccccn2)c(C)c1C	4.44
CCNC(=O)C1CCCN(c2nc(C)cc(C)n2)C1 (stereo not shown)	1.02
O=C(O)c1cccc(Nc2ccnc(Nc3cccc(C(=O)O)c3)n2)c1	4.72
CCOc1ccc(S(=O)(=O)N2CC(=O)Nc3ccccc32)cc1	13.1
O=C(O)c1ccccc1C(=O)N1CCN(c2ncccn2)CC1	15.7
CCCn1cnnc1CNC(=O)C1CCC(=O)N(CCCc2ccccc2)C1 (stereo not shown)	10.2
O=C1C=C(c2ccc(OC(F)(F)F)cc2)C[C@@H](c2ccc(Cl)cc2)C1	12
CC1CC(C)CN(C(=O)Cn2c(=O)n(CCCCC(=O)NC3CCCC3)c(=O)c3ccccc32)C1 (stereo not shown)	10.7
CC(c1cccnc1)N(CCN(C)C)C(=O)Nc1ccc(Cl)c(Cl)c1 (stereo not shown)	-3.96
COc1ccc(CCC(=O)NCCS(=O)(=O)N2CCN(c3ccccc3F)CC2)cc1	-14
Cc1cccc(NC(=O)c2cnc3sccn3c2=O)n1	12.3
Cc1cc(=O)oc2cc(OC(C)C(=O)O)c(Cl)cc12 (stereo not shown)	-4.23

SMILES	hERG current change (%, negative = inhibition) at 1uM [%]
COCc1ccc(C(=O)N2CCc3c([nH]c4ccccc34)C2c2ccccn2)s1 (stereo not shown)	9.68
CCOC(=O)c1c(C)oc2cc(Br)c(OC(=O)N3CCOCC3)cc12	2.61
O=c1ccc(-c2ccc(S(=O)(=O)Nc3cccc([N+](=O)[O-])c3)s2)n[nH]1	5.56
Cc1ccc(NC(=O)NC2CCN(S(=O)(=O)c3ccc(F)cc3)CC2)cc1	5.63
Cc1c([N+](=O)[O-])c([N+](=O)[O-])nn1CC(=O)N1CCCCC1	2.69
COCCCn1c(=O)/c(=C\c2ccccc2OC(F)F)s/c1=C(/C#N)C(N)=O	6.82
Clc1ccccc1OCCCOc1cccc2cccnc12	12
Cc1nn(C)c(C)c1S(=O)(=O)N1CCc2ccccc21	1.45
CCc1c(C(=O)N2CCOCC2)csc1C	-3.49
Nc1nc(N(Cc2ccccc2)Cc2ccccc2)nc(C(F)(F)F)n1	3.29
COc1ccccc1N1CCN(C(=O)c2ccc([N+](=O)[O-])s2)CC1	-12.8
CC(C)(CNC(=O)c1cc(Cl)c(O)c(Cl)c1)N1CCCCC1	11.1
O=C1C(=O)N(Cc2cccnc2)C(c2cccc(O)c2)/C1=C(\O)c1ccc2c(c1)OCCO2 (stereo not shown)	9.99
C[C@H]1CCC[C@@]2(O[C@H](CCO)C[C@H](O)[C@H]2O)O1	6.6
CC1(C)CC(=O)C(C2c3ccccc3Oc3ccccc32)C(=O)C1	15
O=C(CN(C(=O)CCC(=O)Nc1ccccn1)c1ccc2c(c1)OCO2)NCc1ccco1	-3.07
COc1ccc(NC(=O)c2cc(-c3cccnc3)nc3c(C)c(C)ccc23)c(OC)c1	0.459
Clc1cccc(OCCCCCN2CCOCC2)c1	7.88
Cc1nc2ccc(NC(=O)c3ccc(=O)[nH]c3)cc2s1	17.9
O=C(NN=C1CCCCC1)c1cc(-c2ccccc2)n[nH]1	15.3
Cc1ccc2[nH]c(C)c(CCNC(=O)c3cc4cc([N+](=O)[O-])ccc4oc3=O)c2c1	12.6
O/N=C\c1cccn1-c1nccs1	-6.56

SMILES	hERG current change (%, negative = inhibition) at 1uM [%]
NS(=O)(=O)c1ccc(NC(=O)CSc2ncnc3ccccc23)cc1	10.7
CNC(=S)N1CCN(c2ccccc2OC)CC1	14.4
Cc1nnc(SCC(=O)NCC2CCCO2)n1-c1ccccc1 (stereo not shown)	-0.0954
Cc1ccccc1C(=O)N1CCC(C(=O)Nc2cc(C(F)(F)F)ccc2N2CCCC2)CC1	3.29
COc1ccc(C(=O)NCC(c2cccs2)N2CCc3ccccc32)c(OC)c1 (stereo not shown)	10.6
O=C(COc1ccccc1Cl)Nc1ccc2c(c1)OCCO2	9.38
Cc1nn(-c2ccccc2)c(Cl)c1/C=N/Nc1ccc(Cl)c(C(=O)O)c1	11.7
O=C(OCC(=O)N1CCN(C(=O)c2ccco2)CC1)c1cc(S(=O)(=O)Nc2ccc(Cl)cc2)ccc1O	-4.59
Cc1cc(NC(=O)CCNS(=O)(=O)c2cc(Br)cnc2N)ccc1Br	3.77
Cc1ccc(-c2nc(N)c3c(-c4ccc(C)cc4)nn(C(C)(C)C)c3n2)cc1	7.87
CCN(C(=O)COC(=O)c1sccc1C)c1c(N)n(Cc2ccccc2)c(=O)[nH]c1=O	-2.18
Cc1ccc(C)c(S(=O)(=O)NCc2ccc(C(=O)N3CCCCCC3)cc2)c1	13.5
CCN(CC)C(=O)COc1ccc(C=O)cc1OC	-1.25
C=CCOc1ccc(Cl)cc1CNC1CCCC1.Cl	1.86
O=[N+]([O-])c1cccc(-c2nc(-c3ccccn3)no2)c1	9.33
CC1CCN(C(=O)c2ccccc2NC(=O)c2cccs2)CC1	-3.27
CC1=CC(C/C(C)=C/COc2ccc3ccc(=O)oc3c2)OC1=O (stereo not shown)	10.5
COc1ccccc1NC(=O)c1ccc(-c2ccccc2[N+](=O)[O-])o1	11.6
O=C(Nc1cccc(Cl)c1Cl)c1ccccc1NC(=O)C1CC=CCC1C(=O)O (stereo not shown)	8.07
COc1cccc(NC(=S)N(Cc2cccc(Br)c2)CC2CCC(C(=O)O)CC2)c1 (stereo not shown)	12.8
CCc1ccc(NC(=O)Cn2nnc(-c3ccc(C)cc3-n3cnnn3)n2)cc1	12.5
Cc1cc(OC(C)C(=O)N[C@H](C(=O)O)c2ccccc2)c2c3c(c(=O)oc2c1)CCC3 (stereo partly shown)	-4.53
